Measured values taken from publication PMC4242493.
The other results are listed elsewhere or left out. The list includes weakly bound sequences.

target: MaxL homodimer (UniProt P61244); assay: universal protein-binding microarray (PBM); conditions: PBS-based mixture, 10 nM His-tagged protein dimer, 2% milk, 200 ng/uL BSA, 50 ng/uL salmon testes DNA, 0.02% TX-100; detection with Alexa 488 anti-His …; high values mean tight binding; most listed sequences are background and not binding sites; double strand, one strand shown
UniProt P61244, sequence (P61244 whole entry): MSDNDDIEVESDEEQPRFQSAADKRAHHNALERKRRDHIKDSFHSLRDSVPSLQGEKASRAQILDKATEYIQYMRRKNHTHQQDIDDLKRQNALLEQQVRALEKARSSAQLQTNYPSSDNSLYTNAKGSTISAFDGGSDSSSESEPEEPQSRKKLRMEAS

Row | Sequence | binding signal (normalized occupancy)
1 | AAAAGGCA | 0.0774
2 | ATCTTATA | 0.0813
3 | CTTGTGTC | 0.0751
4 | GACCAGTC | 0.075
5 | CTTGAGGA | 0.0717
6 | GATTACGA | 0.0799
7 | CCATAAGA | 0.0813
8 | AAAATGCC | 0.0743
9 | AAAGCCTT | 0.0696
10 | TTCCACAA | 0.0785
11 | CTGTACTC | 0.0799
12 | CAGTATGC | 0.0721
13 | CGAGGATA | 0.0752
14 | TGAAACAA | 0.0784
15 | CTCTCCAC | 0.0859
16 | ACAACTTA | 0.0755
17 | ATATCTCG | 0.0722
18 | AATTTACG | 0.0752
19 | AACTTCTC | 0.0726
20 | AAATGACG | 0.0801
21 | CCTCCTCC | 0.0782
22 | CGCACAAG | 0.0788
23 | ACCCGGCT | 0.0648
24 | CCAATCTA | 0.073
25 | ATGCAGGC | 0.0872

Row | Sequence | binding signal (normalized occupancy)
26 | AGCCATTG | 0.0761
27 | GCTAAAGA | 0.0703
28 | ACTTGCCT | 0.0737
29 | GCTGATTA | 0.073
30 | GCAACAGA | 0.0747
31 | CAGGCCGA | 0.0691
32 | GCGAACCA | 0.0723
33 | CCAGAGCG | 0.0637
34 | ATCTGAAG | 0.0709
35 | CAGTCTAC | 0.0718
36 | CGCCAGTC | 0.0709
37 | GATAAACC | 0.0804
38 | CCAGACTC | 0.0718
39 | ATGCCGGC | 0.0759
40 | GAGAAAAC | 0.0721
41 | AACCGCAC | 0.0807
42 | GCTGAACC | 0.0691
43 | AATAAATT | 0.0775
44 | CGGAATAC | 0.0715
45 | AATTCACG | 0.0771
46 | GGCATGAA | 0.081
47 | AAAATAGC | 0.0757
48 | ATGATTCC | 0.0866
49 | GTCCCGTA | 0.0722
50 | AGGGGGAG | 0.0706

Row | Sequence | binding signal (normalized occupancy)
51 | GAGCGCCA | 0.0704
52 | ACCCCCTG | 0.0802
53 | CCCGTGCG | 0.0872
54 | CCACCAAC | 0.0786
55 | AATAAGTA | 0.0754
56 | AGATAGAA | 0.0749
57 | TGATTGAA | 0.0774
58 | GATCTTGC | 0.0794
59 | AACTTACA | 0.0744
60 | GTGAACAA | 0.0768
61 | CAGTTGTA | 0.0739
62 | GGAAACAC | 0.0759
63 | TACGTCAA | 0.0836
64 | ACTTTCAA | 0.0724
65 | CACACGTG | 0.553
66 | ATAACGGG | 0.0747
67 | ATCTCTGC | 0.0737
68 | TAACTTCA | 0.0746
69 | ACGAAGGC | 0.071
70 | GGCTACAC | 0.0745
71 | ACGATTCT | 0.0779
72 | CTACTGTC | 0.0719
73 | AGGAGGAG | 0.0756
74 | AGGCGATC | 0.0722
75 | GCTGTGAA | 0.0762

Row | Sequence | binding signal (normalized occupancy)
76 | GTGCACAA | 0.0767
77 | ACCTCATA | 0.0788
78 | ATCCATGA | 0.0864
79 | ACATCAAA | 0.0775
80 | CGAGACTC | 0.0777
81 | ACAGAGCG | 0.0698
82 | ACAATCAT | 0.0819
83 | AGAGAGCT | 0.0689
84 | AAAAGCGC | 0.0714
85 | AAAACTAC | 0.0811
86 | CTGGCACA | 0.0744
87 | ATTTGAGG | 0.0731
88 | AGGAAGTA | 0.0706
89 | GTACCTTA | 0.0797
90 | AAAAGTAT | 0.0802
91 | CGCCTGAC | 0.078
92 | GTTCATGA | 0.0798
93 | ATGTACTA | 0.0841
94 | TAGTGCCA | 0.0728
95 | GCGGCAAC | 0.0698
96 | CGTAATGA | 0.0798
97 | AGCTCTCG | 0.067
98 | TCTGACCA | 0.0726
99 | GTAAGCAA | 0.0832
100 | AGTGTGCA | 0.0821

Row | Sequence | binding signal (normalized occupancy)
101 | AAACTCTT | 0.0711
102 | GACCCCTC | 0.0715
103 | AATATTAA | 0.0815
104 | CAACTCGC | 0.0732
105 | CCCGTCAA | 0.0675
106 | CGCCCATA | 0.0775
107 | ATGCTGGA | 0.0806
108 | ATGCACGC | 0.111
109 | ATTATCCA | 0.0846
110 | ACCAACCG | 0.0755
111 | ATACCAAT | 0.0816
112 | GTGCCTGA | 0.0714
113 | CCTCACAC | 0.082
114 | AAGCCCTG | 0.07
115 | GATATTGA | 0.0778
116 | CATGAGCA | 0.0902
117 | CTGACCAG | 0.066
118 | AATACTGT | 0.0767
119 | AGGGTTCA | 0.0737
120 | AGGTCAAA | 0.0707
121 | CTACACAG | 0.0788
122 | ATAAACCA | 0.0758
123 | CCGGGAAC | 0.0715
124 | TATGCAAA | 0.0776
125 | ACCGGTAA | 0.0723

Row | Sequence | binding signal (normalized occupancy)
126 | ATAATGCC | 0.0813
127 | CGACATAA | 0.0783
128 | CAAAAGCG | 0.0731
129 | AATTGCAC | 0.0813
130 | CCGGGTGC | 0.0718
131 | GTGGTAGA | 0.0878
132 | AATAGTGG | 0.078
133 | CCTCCCAC | 0.0815
134 | CAAAGCAG | 0.0675
135 | AAATCCAG | 0.0745
136 | AATCATAG | 0.0777
137 | ACGAATTA | 0.0712
138 | AAGTCGAA | 0.0712
139 | GCATCTAC | 0.0779
140 | AACACTCG | 0.0722
141 | CTCAATAC | 0.0799
142 | CACTTGAA | 0.0769
143 | ACGCAATC | 0.0766
144 | ACGCTGGC | 0.0794
145 | AATCTTTA | 0.0794
146 | TATCAGAA | 0.0755
147 | ATCAATAA | 0.0781
148 | ACGGCCCG | 0.0694
149 | ATGGATAG | 0.081
150 | GGTACGAC | 0.0721

Row | Sequence | binding signal (normalized occupancy)
151 | CTGATCGC | 0.0732
152 | ACCTTGAA | 0.0764
153 | GGAGACCC | 0.0788
154 | ATGACCGG | 0.0725
155 | CGGTGATA | 0.0769
156 | AACAGCAA | 0.0752
157 | TCGATAGA | 0.0792
158 | CAGGCGCC | 0.0679
159 | ACATCTAT | 0.0816
160 | CCGTGTAG | 0.0808
161 | CACTCGTC | 0.0748
162 | TAGTCTGA | 0.0685
163 | ATGCAGCA | 0.0843
164 | CTCGTACC | 0.0723
165 | CACTCTAC | 0.0797
166 | TCACGACA | 0.0783
167 | ACTGAAGT | 0.0686
168 | CGGTTCAC | 0.0724
169 | CGTACTGC | 0.0763
170 | ATCTCGTC | 0.0708
171 | AACTCCCG | 0.0766
172 | AATCGCAA | 0.0674
